Measured values: PubChem BioAssay AID1159614 (National Center for Advancing Translational Sciences (NCATS), 2016)
The whole screen tested about 45,000 compounds, of which about 65 (0.1%) were called active. Calls come from the whole dose curve; as a rule, active = well fitted activation curve with a large enough effect; inconclusive = small, poorly fitted or top-dose-only effect; inactive = no such curve, though single readings can be large or run the other way. The list shows a part of the results.

What follows are compounds tested against Galactocerebrosidase (Homo sapiens) (UniProt P54803) (assay: A Novel Cell-Based Assay to Identify Small Molecules for B -Galactocerebrosidase). Conditions: 145M-Twi-hGALC-G270D cells, HMU-beta-Gal fluorescence, 48 h; series mostly up to 57.5 µM; activation: at the top concentration.
Chain of UniProt P54803 (P54803 whole entry, looked up): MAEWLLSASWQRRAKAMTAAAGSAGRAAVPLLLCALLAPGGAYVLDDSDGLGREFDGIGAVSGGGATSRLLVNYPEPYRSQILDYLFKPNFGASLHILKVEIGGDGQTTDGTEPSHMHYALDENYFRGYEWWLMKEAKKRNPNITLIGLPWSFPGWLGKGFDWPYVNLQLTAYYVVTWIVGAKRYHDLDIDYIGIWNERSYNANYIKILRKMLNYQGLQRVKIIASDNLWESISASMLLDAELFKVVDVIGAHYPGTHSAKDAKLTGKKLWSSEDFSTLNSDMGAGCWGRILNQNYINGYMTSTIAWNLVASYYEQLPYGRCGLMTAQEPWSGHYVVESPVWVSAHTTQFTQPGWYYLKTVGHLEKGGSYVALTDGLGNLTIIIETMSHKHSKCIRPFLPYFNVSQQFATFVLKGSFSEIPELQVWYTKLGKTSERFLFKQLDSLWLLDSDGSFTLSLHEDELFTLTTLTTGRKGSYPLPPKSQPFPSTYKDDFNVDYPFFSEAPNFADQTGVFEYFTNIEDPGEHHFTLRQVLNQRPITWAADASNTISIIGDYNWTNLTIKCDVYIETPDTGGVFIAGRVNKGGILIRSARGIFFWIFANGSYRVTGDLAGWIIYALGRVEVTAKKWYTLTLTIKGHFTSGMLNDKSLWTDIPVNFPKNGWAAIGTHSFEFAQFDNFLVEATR
In short: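 qHTS, 1536-well; 145M-Twi-hGALC-G270D cells (WT line also made) in DMEM/F12 + 10% FBS; compound incubation on live cells; HMU-β-gal 0.1 mM final, pH 5.2, NaTC; carbonate stop; fluorescence increase = enhanced residual activity.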
Note: 0% is about no effect; nearly all actives have a fitted effect of over 65% in size.

Row | Structure (SMILES) | activation
1 | Cc1ccc(NC(=O)Cn2nc(C)n3cccc3c2=O)c(C)c1 | inactive: -23.5%
2 | CN(C)CCn1c2c(c(SCC(=O)Nc3ccc(F)cc3F)nc1=O)CCC2 | inactive: -18.6%
3 | CCCCn1cc(S(=O)(=O)c2cccc(C)c2)c(=O)c2cc(F)c(N3CCOCC3)cc21 | inactive: -6.54%
4 | O=C(NCCc1ccccc1)c1ccc(CSc2nc3ccncc3n2Cc2ccc(F)cc2)cc1 | inactive: -9.88%
5 | CCOc1ccc(C(=O)Nc2cccc(OCc3cc(=O)n4cc(C)sc4n3)c2)cc1 | inactive: -10.9%
6 | CCCCOC(=O)c1cccc(NC(=O)c2cc3ccccc3o2)c1 | inactive: -47.8%
7 | O=C(Nc1ccc(Cl)cc1F)c1cc(S(=O)(=O)NCc2ccc3c(c2)OCO3)ccc1F | inactive: -9.49%
8 | CCc1ccc2oc(C(=O)Nc3sc4c(c3C(=O)NC)CCCC4)cc(=O)c2c1 | inactive: 4.27%
9 | COc1cccc(CNCCSc2nnnn2C)c1OCc1ccccc1F | inactive: -5.53%
10 | COc1ccc(-c2nc3ccccc3o2)cc1NC(=O)COc1ccc(C(C)(C)C)cc1 | inactive: -18.3%
11 | CCOc1ccc(S(=O)(=O)NCC(c2ccco2)S(=O)(=O)c2ccc(F)cc2)cc1 (configuration not stated) | inactive: -17.3%
12 | COc1cccc(N2CC(NC(=O)c3ccc(S(=O)(=O)N4CCCCC4)cc3)CC2=O)c1 (configuration not stated) | inactive: -21.2%
13 | CCOC(=O)c1cc2c(=O)n3ccccc3nc2n(CC2CCCO2)c1=NC(=O)c1ccc(C)cc1 (configuration not stated) | inactive: -9.31%
14 | O=[N+]([O-])c1ccc(C(c2sc3nc(-c4ccco4)nn3c2O)N2CCN(c3cccc(Cl)c3)CC2)cc1 (configuration not stated) | inactive: -9.28%
15 | Cc1ccc(C)c(Cn2nc(-c3cc(C)ccc3C)ccc2=O)c1 | inactive: -14.6%
16 | CCOC(=O)c1c(S(=O)(=O)N2CCCC(C(=O)N3CCN(c4ccccc4)CC3)C2)c(C)n(C)c1C (configuration not stated) | inactive: -14.2%
17 | Cc1ccccc1OC(=O)CSc1nnc(-c2cccs2)o1 | inactive: -4.52%
18 | COc1ccccc1NC(=O)CSc1oc(-c2cccs2)nc1S(=O)(=O)c1ccccc1 | inactive: -29.7%
19 | O=c1cc(CSc2n[nH]c(-c3ccccc3)n2)[nH]c2ccccc12 | inactive: -5.78%
20 | COc1cc(NC(=O)c2cc3c(=O)n(Cc4cccs4)ccc3nc2C)cc(OC)c1OC | inactive: -12.3%
21 | CC(Oc1ccccc1Cl)C(=O)N1CCN(CCc2ccccn2)CC1 (configuration not stated) | inactive: -15.9%
22 | N=C(N=C(N)N)N1CCOCC1 | inactive: -5.34%
23 | Cc1nnc(NCc2ccccc2)c2c1nnn2Cc1ccc(F)cc1 | inactive: -17%

Row | Structure (SMILES) | activation
24 | CCc1cccc(NC(=O)Cn2nc(-c3cc(C)ccc3C)ccc2=O)c1 | inactive: -2.38%
25 | Cc1ccc(CN2C(=O)C3(c4ccccc42)N(c2cccc(C(F)(F)F)c2)C(=O)CS3(=O)=O)cc1 (configuration not stated) | inactive: -20.8%
26 | O=C(NC1CCCCC1)c1ccc2c(c1)N(Cc1ccc(Cl)cc1)C(=O)c1ccccc1S2(=O)=O | inactive: -14.9%
27 | COc1ccc(OC)c(NC(=O)CN2C(=O)CCc3cc(S(=O)(=O)N4CCCCC4)ccc32)c1 | inactive: -10%
28 | O=C(CN1C(=O)COc2ccc(S(=O)(=O)N3CCOCC3)cc21)N1CCN(c2ccc(F)cc2)CC1 | inactive: 2.13%
29 | CC(Sc1nc(=O)cc(N)n1CCc1ccccc1)C(=O)Nc1ccccc1C#N (configuration not stated) | inactive: -18.2%
30 | CCN(Cc1ccccc1)C(=O)c1cc2c(s1)-c1c(C)cccc1OC2 | inactive: -6.52%
31 | Cc1ccc(Cl)cc1NC(=O)Cn1c(=O)n(Cc2ccc(C(=O)NCc3ccc4c(c3)OCO4)cc2)c(=O)c2ccccc21 | inactive: -0.952%
32 | CC(=O)c1cccc(NS(=O)(=O)c2ccc3c(c2)NC(=O)CC(=O)N3)c1 | inactive: -6.22%
33 | COc1cccc(N2CCN(C(=O)c3cnn(-c4ccc(C)cc4C)c3C3CCN(C(=O)OC(C)(C)C)CC3)CC2)c1 | inactive: -12.6%
34 | CC(=O)N1c2c(cc(Br)cc2S(=O)(=O)N2CCN(c3cccc(Cl)c3)CC2)CC1C (configuration not stated) | inactive: -2.15%
35 | CCOc1ccc(-c2csc(/C(C#N)=C/c3ccc(Br)cc3)n2)cc1 | inactive: -2.51%
36 | CCN1CCN(c2c(S(=O)(=O)c3ccc(C)c(C)c3)cnc3ccc(F)cc23)CC1 | inactive: -24%
37 | COc1ccc(NC(=O)CSc2cc(-c3ccccc3)nc(C)n2)cc1 | inactive: -1.39%
38 | O=c1c2cnn(-c3ccc(Cl)cc3)c2ncn1Cc1cccc(C(F)(F)F)c1 | inactive: -17.2%
39 | Cc1nn(CC(=O)Nc2ccccc2F)c(=O)c2c(C)n(-c3ccc(Cl)cc3)nc12 | inactive: -0.571%
40 | Cc1ccc(-n2c(SCC(=O)Nc3cccc(C)c3)nc3c(oc4ccccc43)c2=O)cc1 | inactive: -13.7%
41 | CN1CCN(c2nc3c(S(=O)(=O)c4ccccc4)nnn3c3ccsc23)CC1 | inactive: -5.26%
42 | CCOC(=O)C1CCN(C(=O)CN2c3ccc(CC)cc3-c3ccccc3S2(=O)=O)CC1 | inactive: -8.04%
43 | Cc1nc([N+](=O)[O-])cn1-c1ccc([N+](=O)[O-])cc1 | inactive: -12.7%
44 | CCS(=O)(=O)c1ncc(N(Cc2ccc(F)cc2)Cc2ccco2)c(C(=O)Nc2cc(C)ccc2C)n1 | inactive: -2.31%
45 | CCC(=O)Nc1ccc2nc(SCCOc3ccc(C)cc3)sc2c1 | inactive: -8.86%
46 | CCCn1c(NCc2ccc(N(CC)CC)cc2)nc2ccccc21 | inactive: -8.75%

Row | Structure (SMILES) | activation
47 | CCCN(CCC)C(=O)Cn1c(=O)n(-c2ccc(OC)cc2)c(=O)c2ccc(C(=O)NCc3ccc(C)cc3)cc21 | inactive: -12.8%
48 | Cc1cc(OI)c(C(C)C)cc1-c1cc(C(C)C)c(OI)cc1C | inactive: -19.9%
49 | COc1cccc(-c2ccc3c(N)c(C(=O)Nc4cc(F)ccc4F)sc3n2)c1 | inactive: -10.3%
50 | CO[C@@H]1[C@@H](O[C@@H]2O[C@H](C)[C@@H](O[C@H]3C[C@@](C)(O)[C@@H](O)[C@H](C)O3)[C@H](N(C)C)[C@H]2O)[C@@H](CC=O)C[C@@H](C)[C@@H](O[C@@H]2CC[C@H](N(C)C)[C@@H](C)O2)/C=C/C=C/C[C@@H](C)OC(=O)C[C@H]1OC(C)=O | inactive: -13.3%
51 | CCOC(=O)C1CCCN(C(=O)c2ccc(-n3ccc4ccccc43)s2)C1 (configuration not stated) | inactive: -18.1%
52 | COc1ccc(CNC(=O)c2cc(-c3ccc(OC)cc3)nc3n[nH]c(-c4cccc([N+](=O)[O-])c4)c23)cc1 | inactive: -11%
53 | Cc1ccc(CNC(=O)C2CCN(S(=O)(=O)c3ccc(F)cc3)CC2)cc1 | inactive: 5.2%
54 | CC(=O)N1CCc2c(sc3c2c(=O)n(-c2ccc(C)cc2)c(=O)n3Cc2c(F)cccc2Cl)C1 | inactive: 1.43%
55 | COC(=O)c1c(NC(=O)Cc2coc3cc(C)ccc23)sc2c1CCCC2 | inactive: -12.7%
56 | COc1ccccc1CNC(=O)c1cccn1-c1nnc(N2CCCCC2)s1 | inactive: -4.38%
57 | COc1ccc(CN2CCc3c(c(=O)n4ncc(C(=O)N5CCN(c6ccc(F)cc6)CC5)c4n3C)C2)cc1 | inactive: -28.9%
58 | COc1ccc(-c2cc(C)no2)cc1S(=O)(=O)NCc1cccs1 | inactive: -16.9%
59 | CCOc1ccc(C2CC(=O)Nc3cc4c(cc32)OCO4)cc1OC (configuration not stated) | inactive: -36.5%
60 | CCc1cccc(NC(=O)CN2Cc3ccccc3C2=O)c1 | inactive: -18.3%
61 | CCOC(=O)c1c(S(=O)(=O)N2CCCC(C(=O)Nc3ccccn3)C2)c(C)n(C)c1C (configuration not stated) | inactive: -15.1%
62 | COc1cc(CNC(=O)C2CCCCN2S(=O)(=O)c2ccc(F)cc2)cc(OC)c1OC (configuration not stated) | inactive: -24.5%
63 | Cc1nc(-c2cccc(NC(=O)Nc3ccccc3C(F)(F)F)c2)no1 | inactive: -6.44%
64 | Cc1c(Cl)cccc1NC(=O)Cn1cc(C(=O)c2cccs2)c2ccccc21 | inactive: -24.5%
65 | O=C(CSc1nc2ccsc2c(=O)n1Cc1ccccc1Cl)NCc1ccc(F)cc1 | inactive: -4.25%
66 | CCc1ccc(-n2c(=O)c3sc4ccccc4c3n(CC(=O)N3CCCC3)c2=O)cc1 | inactive: -6.06%
67 | COc1cccc(C(=O)c2cn(CC(=O)NCc3ccccc3Cl)c3nc(C)ccc3c2=O)c1 | inactive: -0.962%
68 | Cc1ccc(-c2nc(CS(=O)CC(=O)N3CCN(c4cccc(Cl)c4)CC3)c(C)o2)cc1 (configuration not stated) | inactive: -15.2%
69 | CCCOc1cccc(C2c3c(oc4ccccc4c3=O)C(=O)N2c2nncs2)c1 (configuration not stated) | inactive: 6.23%

Row | Structure (SMILES) | activation
70 | Cc1ccc(C)c(Cn2c(CCCNC(=O)C3CCCCC3)nc3ccccc32)c1 | inactive: -11.7%
71 | Cc1ccc2cccc(NC(=O)COc3ccccc3Cl)c2n1 | inactive: 3.92%
72 | CCc1ccc(NC(=O)CCCc2nnc3n(CC(C)C)c(=O)c4sccc4n23)cc1 | inactive: -3.05%
73 | CC(C)CN(CC(C)C)S(=O)(=O)c1ccc(C(=O)Nc2sc3c(c2C(N)=O)CC(C)(C)NC3(C)C)cc1 | inactive: -27.6%
74 | O=C(Nc1c2c(nn1-c1ccc(Cl)cc1)CS(=O)(=O)C2)c1cccc(F)c1 | inactive: -25.2%
75 | CC(=O)Nc1ccc(S(=O)(=O)NCCc2cn3ccsc3n2)cc1 | inactive: -19%
76 | Cc1nnc(NC(=O)CSc2nccn2Cc2ccc(F)cc2)s1 | inactive: -16.8%
77 | CCOc1ccccc1NC(=O)c1c(NCc2cccs2)sc2c1CCC(C)C2 (configuration not stated) | inactive: -14.9%
78 | O=C(CSc1nc(-c2cccc(F)c2)[nH]c1-c1ccccc1)Nc1ccc2c(c1)OCCO2 | inactive: -30.3%
79 | CCC(=O)N1CCc2cc(OC)c(OC)cc2C1COc1ccccc1OC (configuration not stated) | inactive: -19.4%
80 | Cc1cccc(OCc2ccc(-c3nc(C#N)c(NCc4cccnc4)o3)o2)c1 | inactive: -8.39%
81 | COc1ccc(-c2nc(CNS(=O)(=O)c3ccc(Br)cc3)cs2)cc1 | inactive: -17%
82 | COC(=O)c1ccc(C2c3c(-c4ccccc4O)n[nH]c3C(=O)N2Cc2ccncc2)cc1 (configuration not stated) | inactive: -14.1%
83 | CC(C)c1nn2c(=O)cc(COC(=O)c3ccccc3NC(=O)COc3ccccc3)nc2s1 | inactive: -17%
84 | Cc1ccc(CN2COc3ccc4c(-c5ccccc5)cc(=O)oc4c3C2)cc1 | inactive: -18.3%
85 | Cc1c(C(=O)Nc2cccc(Cl)c2)oc2ccc(S(=O)(=O)N3CCCCCC3)cc12 | inactive: -21.7%
86 | Cc1cc(C)nc(-n2nc(C)c3c2N(C)C(=O)CC3c2ccc(Cl)cc2)n1 (configuration not stated) | inactive: -10.1%
87 | O=C(NCc1ccccc1)C(=O)Nc1ccc2nc3n(c(=O)c2c1)CCCCC3 | inactive: -11.3%
88 | COc1ccccc1NC(=O)CN1C(=O)C2(SCC(=O)N2c2ccc(F)c(F)c2)c2ccccc21 (configuration not stated) | inactive: -25.6%
89 | Cc1nnc(NC(=O)c2nc(SCc3ccccc3F)ncc2Cl)s1 | inactive: -14.1%
90 | CCc1cc(C(=O)NCc2ccccc2)no1 | inactive: -15%
91 | COc1cc(NC(=O)CSc2nc(-c3ccco3)cc(C(F)(F)F)n2)cc(OC)c1OC | inactive: -16.5%
92 | CCCOc1ccc(C(=O)Nc2ccc(NC(=O)c3ccccc3)c(Br)c2)cc1 | inactive: -20.5%
